Earlier results on 52 sequences are cited in PMC11006913.

The list shows a part of the results.

What all share (conditions): PBM; conditions not shown; double strand, one strand shown; scale: upbm affinity estimate (log intensity, higher = more binding, comparable within an allelic series)
In data set [1] the target is NKX2-5 K183E (Homo sapiens) (UniProt P52952).
Data set [2] addresses NKX2-5 R161P (Homo sapiens) (UniProt P52952).
Data set [3] deals with NKX2-5 R190C (Homo sapiens) (UniProt P52952).

Turning to CACTTAAG [8-mer CACTTAAG], the binding signal was 12 in data set [1], 13.1 in data set [2] and 10.9 in data set [3].

In the case of GGCACTTA [8-mer GGCACTTA], the binding signal in data set [1] was 11.6; in data set [2], 13.1; in data set [3], 10.6.

Turning to CGGAGACC [8-mer CGGAGACC], the binding signal in data set [1] is 10.2; in data set [2], 10.3; in data set [3], 10.2.

Turning to AAGCACTT [8-mer AAGCACTT], the binding signal in data set [1] is 11.3; in data set [2], 12.7; in data set [3], 10.7.

As for ATACTTGA [8-mer ATACTTGA], the binding signal in data set [1] was 11.2; in data set [2] it was 12.4; in data set [3], 10.9.

Consider CACTTCTC [8-mer CACTTCTC], for which the binding signal in data set [1] is 11; in data set [2], 11.8; in data set [3], 10.6.

CCCCGTGC [8-mer CCCCGTGC]: the binding signal in data set [1], in data set [2] and in data set [3] was 10.2 in each case.

For CACCTTGG [8-mer CACCTTGG], the binding signal in data set [1] is 10.3; in data set [2], 10.6; in data set [3], 10.4.

CACTTCAA [8-mer CACTTCAA]: the binding signal in data set [1] is 11.5; in data set [2], 12.6; in data set [3] it was 10.8.

For the sequence ATCGGCAG [8-mer ATCGGCAG], the figures for the binding signal in data set [1], in data set [2] and in data set [3] were 10.3, 10.2 and 10.3, respectively.

For CGGGCTCA [8-mer CGGGCTCA], the binding signal in data set [1] is 10.2; in data set [2], 10.3; in data set [3], 10.2.

Turning to CCCAGTCC [8-mer CCCAGTCC], the binding signal in data set [1] was 10.2; in data set [2], 10.3; in data set [3], 10.1.

With AGCACTTG [8-mer AGCACTTG], the results for the binding signal in data set [1], in data set [2] and in data set [3] were 11.1, 12.5 and 10.5, respectively.

For CTGCGGTC [8-mer CTGCGGTC], the binding signal in data set [1] was 10.3; in data set [2], 10.5; in data set [3] it was 10.2.

CACACTTA [8-mer CACACTTA]: the binding signal in data set [1] is 11.2; in data set [2], 12.6; in data set [3], 10.8.

ATTAAGTG [8-mer ATTAAGTG]: the binding signal was 11.7 in data set [1], 12.7 in data set [2] and 11 in data set [3].

In the case of ATAAGTGG [8-mer ATAAGTGG], the binding signal in data set [1] is 12.5; in data set [2], 13.3; in data set [3], 11.1.

As to CGAACACG [8-mer CGAACACG], the figures for the binding signal in data set [1], in data set [2] and in data set [3] were 10.4, 10.3 and 10.4, respectively.

For ACACTTCA [8-mer ACACTTCA], the binding signal in data set [1] is 11.2; in data set [2] it was 12.5; in data set [3] it was 10.9.

Consider GGCCAAAC [8-mer GGCCAAAC], for which the binding signal is 10.3 in data set [1], 10.3 in data set [2] and 10.2 in data set [3].

As for CACTTATA [8-mer CACTTATA], the binding signal in data set [1] was 11.8; in data set [2], 13; in data set [3] it was 11.1.

On to ATCCGGAT [8-mer ATCCGGAT], for which the binding signal in data set [1] is 10.6; in data set [2], 10.8; in data set [3] it was 10.5.

In the case of CCACTTGA [8-mer CCACTTGA], the binding signal in data set [1] was 12.7; in data set [2], 13.6; in data set [3], 10.6.

Consider CGCCTTCC [8-mer CGCCTTCC], for which the binding signal in data set [1] is 10.3; in data set [2] it was 10.5; in data set [3], 10.3.

As for ACCCGGTC [8-mer ACCCGGTC], the binding signal in data set [1] was 10; in data set [2] it was 10.1; in data set [3] it was 10.

Regarding CACTTAAC [8-mer CACTTAAC], the results for the binding signal in data set [1], in data set [2] and in data set [3] were 11.6, 12.8 and 10.8, respectively.

As for ACAAGTGG [8-mer ACAAGTGG], the binding signal in data set [1] is 12; in data set [2] it was 13; in data set [3], 10.8.

Take CGGGGCGA [8-mer CGGGGCGA]: the binding signal in data set [1], in data set [2] and in data set [3] was 10.2 throughout.

For the sequence ACACGGCG [8-mer ACACGGCG], the binding signal is 10.2 in data set [1], 10.2 in data set [2] and 10.3 in data set [3].

On to CCGTGGGC [8-mer CCGTGGGC], for which the binding signal in data set [1] was 9.9; in data set [2], 9.96; in data set [3], 10.

In the case of CCAAGGCG [8-mer CCAAGGCG], the binding signal in data set [1] is 10.1; in data set [2], 10.2; in data set [3], 10.1.

Consider GCACTTGA [8-mer GCACTTGA], for which the binding signal was 11.6 in data set [1], 13.2 in data set [2] and 10.7 in data set [3].

Take GCCACGGA [8-mer GCCACGGA]: the binding signal was 10.2 in data set [1], 10.4 in data set [2] and 10.2 in data set [3].

As to CAAGTGGG [8-mer CAAGTGGG], the binding signal is 11.6 in data set [1], 12.6 in data set [2] and 10.5 in data set [3].

ACAGGGTC [8-mer ACAGGGTC]: the binding signal was 10.3 in data set [1], 10.5 in data set [2] and 10.3 in data set [3].

For CCAGCACC [8-mer CCAGCACC], the binding signal was 10.1 in data set [1], 10.3 in data set [2] and 10 in data set [3].

In the case of TAAGTGCA [8-mer TAAGTGCA], the binding signal in data set [1] is 11.4; in data set [2] it was 12.8; in data set [3], 10.9.

On to AAGTGGAG [8-mer AAGTGGAG], for which the values for the binding signal in data set [1], in data set [2] and in data set [3] were 11.4, 12.5 and 10.8, respectively.

Consider AACAGGCG [8-mer AACAGGCG], for which the binding signal in data set [1] is 10.3; in data set [2] it was 10.4; in data set [3], 10.4.

As for GCACTTAC [8-mer GCACTTAC], the binding signal was 11.2 in data set [1], 12.5 in data set [2] and 10.7 in data set [3].

ACAGCCGG [8-mer ACAGCCGG]: the binding signal in data set [1] was 10.3; in data set [2] it was 10.4; in data set [3], 10.2.

CAGGGCCC [8-mer CAGGGCCC]: the binding signal was 10 in data set [1], 10.3 in data set [2] and 9.97 in data set [3].

For CCAGTTCG [8-mer CCAGTTCG], the figures for the binding signal in data set [1], in data set [2] and in data set [3] were 10.4, 10.5 and 10.4, respectively.

In the case of ACGGCGAG [8-mer ACGGCGAG], the results for the binding signal in data set [1], in data set [2] and in data set [3] were 10.3, 10.4 and 10.2, respectively.

Regarding AGTTCGGG [8-mer AGTTCGGG], the results for the binding signal in data set [1], in data set [2] and in data set [3] were 10.2, 10.4 and 10.2, respectively.

For ACACTTGA [8-mer ACACTTGA], the figures for the binding signal in data set [1], in data set [2] and in data set [3] were 11.5, 13 and 10.8, respectively.

On to CAGCTCCG [8-mer CAGCTCCG], for which the binding signal in data set [1] is 10.1; in data set [2], 10.3; in data set [3] it was 10.2.

In the case of CTGCGGGA [8-mer CTGCGGGA], the binding signal in data set [1] was 10.2; in data set [2] it was 10.2; in data set [3], 10.3.

In the case of ACACTACA [8-mer ACACTACA], the results for the binding signal in data set [1], in data set [2] and in data set [3] were 11.1, 11.7 and 11, respectively.

On to TAAGTACA [8-mer TAAGTACA], for which the binding signal in data set [1] was 11.3; in data set [2] it was 12.6; in data set [3], 11.1.

On to AAGTGCAG [8-mer AAGTGCAG], for which the binding signal in data set [1] was 10.7; in data set [2], 12.1; in data set [3], 10.6.

Turning to CGGCTCAA [8-mer CGGCTCAA], the results for the binding signal in data set [1], in data set [2] and in data set [3] were 10.2, 10.4 and 10.2, respectively.
